Target: the molecule itself
Assay: SEC

B1: D273L IDH1 (enzyme)
chain: not shown
**Q.** How did the “stoichiometry N” value turn out when B1 was run?
**A.** Its value is 2.

Source: paper PMC7996970 (The Biochemical journal, 2020)
